# Laboratory results as given in PubChem BioAssay AID902 (National Center for Advancing Translational Sciences (NCATS), 2007).
# Out of some 130,000 compounds screened, about 1,900 (1.5%) were called active. The shares of active, inactive and inconclusive entries below differ from those in the screen. The call rests on the fitted dose curve; in most records, active means well fitted cell-killing curve with a large enough effect; inconclusive means small, poorly fitted or top-dose-only effect; inactive means no such curve, though single readings can be large or run the other way. Where the call is inconclusive, the potency comes from a doubtful curve fit.
# Assay: qHTS Screen for Compounds that Selectively Target Cancer Cells with p53 Mutations: Cytotoxicity of p53ts Cells at the Nonpermissive Temperature; further: nearly all actives have a fitted effect of over 55% in size
# Settings: H1299-p53A138V viability at 39C, ATP luminescence, 24 h; series mostly up to 46.1 µM
# Potency means the concentration at half of the fitted maximal effect; tags describe the fitted curve by direction and shape.
row,SMILES,Potency
1,Cc1ccc(NC(=O)c2c(C(=O)Nc3ccccc3)sc3nc(C)cc(=O)n23)c(C)c1,"inconclusive: 31.6 µM [cytotoxic, partial curve]"
2,CC(C)Oc1ccc(CNC(=O)Nc2ccc3c(c2)N(C)C(=O)c2ccccc2S3)cc1,inactive
3,Cc1cccc(Cn2c(SCc3ccc(C(=O)N4CCC(C)CC4)cc3)nc3ccncc32)c1,inactive
4,COc1ccccc1NC(=O)CN1C(=O)CC(c2ccc(C)c(C)c2)=Nc2ccccc21,"inconclusive: 15.8 µM [cytotoxic, partial curve]"
5,CCCn1c(CN2CCN(C(=O)OCC)CC2)nc2c1c(=O)n(C)c(=O)n2C,"inconclusive: 15.8 µM [cytotoxic, partial curve]"
6,O=[N+]([O-])c1ccc(CSc2ncnc3c2ncn3[C@@H]2O[C@@H](CO)[C@@H](O)[C@H]2O)cc1,"inconclusive: 20 µM [cytotoxic, partial curve]"
7,Clc1ccc(C(c2nnnn2C2CCCCC2)N(Cc2cccnc2)Cc2ccco2)cc1 (configuration not stated),inactive
8,COc1cc(C(=O)Nc2nc3c(s2)Cc2c(Br)ccc(OC)c2-3)cc(OC)c1OC,"inconclusive: 15.8 µM [cytotoxic, single point]"
9,CCC(Sc1nc2ccccc2c2nc(CCc3c(C)n[nH]c3C)nn12)C(=O)Nc1ccc(OC)cc1 (configuration not stated),"inconclusive: 31.6 µM [cytotoxic, single point]"
10,COc1ccc(Cl)cc1NC(=O)CSc1c2c(nc3ccccc13)CCC2,inactive
11,COc1ccc(NC(=O)CSc2c3c(nc4ccccc24)CCC3)c(OC)c1,"inconclusive: 25.1 µM [cytotoxic, single point]"
12,COc1ccc(Cn2ccnc2SCC(=O)Nc2cc(C(F)(F)F)ccc2Cl)cc1,"inconclusive: 25.1 µM [cytotoxic, partial curve]"
13,COc1cccc(Nc2sc(C(=O)c3ccc(F)cc3)c(N)c2C(=O)NCc2ccc(C)cc2)c1,"inconclusive: 7.94 µM [cytotoxic, partial curve]"
14,COc1ccc(C(=O)Nc2cc(OC)cc(OC)c2)cc1,"inconclusive: 10 µM [cytotoxic, partial curve]"
15,Cc1ccc(OCCn2c(NC(=O)c3ccco3)nc3ccccc32)cc1,"inconclusive: 10 µM [cytotoxic, partial curve]"
16,O=C(CSc1nc2c([nH]c3ccccc32)c(=O)n1-c1ccccc1F)Nc1ccccc1C(F)(F)F,inactive
17,Cc1ccc2c(c1)C(=O)C(=O)N2Cc1ccc(OC(C)C)cc1,active: 15.8 µM
18,Cc1ccc2c(c1)CC(C)N2S(=O)(=O)c1nnc(NC(=O)c2ccccc2F)s1 (configuration not stated),"inconclusive: 0.005 µM [cytotoxic, full curve, poor fit]"
19,C=Cc1ccc(CSc2nnc(C)n3c2cc2occc23)cc1,"inconclusive: 6.31 µM [cytotoxic, partial curve]"
20,O=C(Nc1cc2ccc(O)cc2oc1=O)c1ccc(F)cc1,"inconclusive: 3.98 µM [cytotoxic, full curve]"
21,COc1cccc(CNC(=O)c2oc3ccc4c(c3c2C)C(=O)CC(C)(C)O4)c1OC,"inconclusive: 12.6 µM [cytotoxic, single point]"

row,SMILES,Potency
1,COc1ccc(CCNC(=O)CCCCn2c(=O)c3ccccc3n(Cc3ccc(Cl)cc3)c2=O)cc1OC,"inconclusive: 31.6 µM [cytotoxic, single point]"
2,Cc1ccc(Cl)cc1N1CCN(CCCNC(=O)c2nnc(Cc3cccc(Cl)c3)o2)CC1,active: 12.6 µM
3,Cc1ccc2c(CC(=O)N(Cc3ccc(Cl)cc3)Cc3ccco3)coc2c1,"inconclusive: 31.6 µM [cytotoxic, single point]"
4,CCC1CCCCN1CCCNC(=O)c1ccc2c(c1)N(Cc1ccc(Cl)cc1)C(=O)c1ccccc1S2(=O)=O (configuration not stated),"inconclusive: 15.8 µM [cytotoxic, single point]"
5,COc1ccc(-c2cc(N)n(S(=O)(=O)c3c(F)c(F)c(F)c(F)c3F)n2)cc1OC,"inconclusive: 31.6 µM [cytotoxic, single point]"
6,O=C1NC(c2ccccn2)Nc2sc3c(c21)CCC3 (configuration not stated),"inconclusive: 20 µM [cytotoxic, single point]"
7,O=S(=O)(Nc1ccc2nc(-c3cccc(Cl)c3)oc2c1)c1ccccc1,"inconclusive: 31.6 µM [cytotoxic, single point]"
8,Cc1ccc2onc(CC(=O)N(C)c3ccccc3)c2c1,"inconclusive: 31.6 µM [cytotoxic, single point]"
9,COc1ccccc1CNC(=O)c1ccc2nc(-c3ccccc3)c(-c3ccccc3)nc2c1,"inconclusive: 0.004 µM [cytotoxic, full curve, poor fit]"
10,CCOC(=O)c1cc(-c2ccccc2)n(CCC(=O)Nc2ccc(Cl)c(C(F)(F)F)c2)c1C,"inconclusive: 25.1 µM [cytotoxic, partial curve]"
11,COc1ccc(CNc2ncncc2-c2ccc(C(=O)N(C)C)cc2)c(OC)c1,inactive
12,CCN1C(=O)/C(=C2/Sc3ccc(OC)cc3N2C)SC1=Nc1cccc(O)c1,inactive
13,CCCCCOc1ccc(/C=C/C(=O)Nc2sc(C(C)=O)c(C)c2C(=O)OCC)cc1OC,inactive
14,COc1cccc(-c2ccc3ncnc(NCc4ccc(OC)cc4OC)c3c2)c1,inactive
15,CCOC(=O)c1c(-c2ccccc2)csc1NC(=O)c1nc(S(=O)(=O)CC)ncc1Cl,"inconclusive: 31.6 µM [cytotoxic, single point]"
16,CCS(=O)(=O)c1ncc(Cl)c(C(=O)N2CCN(c3cccc(Cl)c3)CC2)n1,active: 2.51 µM
17,Cc1ccc(OCCCn2c(CCNC(=O)C3CCCCC3)nc3ccccc32)c(C)c1,"inconclusive: 0.316 µM [cytotoxic, full curve, poor fit]"
18,CCOC(=O)c1ccc(N2C(=O)c3n[nH]c(-c4cccs4)c3C2c2ccc(C(C)C)cc2)cc1 (configuration not stated),active: 10 µM
19,Cc1ccc2c(c1)c1c(c(=O)n(-c3ccccc3C)c(=O)n1CC(=O)NCc1ccccc1)n2C,inactive
20,CCCC(=O)N1CCc2cc(-c3nc(N)sc3C)ccc21,inactive
21,CCOc1cc(N2CCOCC2)c(OCC)cc1NC(=O)c1cc(-c2ccco2)nc2ccccc12,"inconclusive: 25.1 µM [cytotoxic, single point]"
